Source: PubChem BioAssay AID2546 (National Center for Advancing Translational Sciences (NCATS), 2010)
The whole screen tested about 310,000 compounds, of which about 11,000 (3.5%) were called active. Inconclusive results, whose numbers are uncertain, are shown with a selection of clear calls. The call rests on the fitted dose curve; in most records, active means well fitted inhibition curve with a large enough effect; inconclusive means small, poorly fitted or top-dose-only effect, or effect the other way; inactive means flat fitted curve, though single readings scatter. No potency is given beside an inconclusive call; the fits are too rough.

assay: VP16 counterscreen qHTS for inhibitors of ROR gamma transcriptional activity; settings: Drosophila S2 Gal4-VP16 UAS-luciferase, luminescence, 20 h; activity, negative = inhibition: at 53.6 µM (top of the series);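 further: Gal4-VP16 expression switched on by copper sulfate through the metallothionein promoter; nearly all actives have a fitted effect of over 50% in size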
On the % scale 0 is the no-effect control and ±100 the full control effect; potency means the concentration at half of the fitted maximal effect; tags describe the fitted curve by direction and shape.

| SMILES | Potency | activity, negative = inhibition |
| --- | --- | --- |
| C[C@H]1C(c2ccc(F)cc2)=NN(c2ccccc2)[C@@H]1CO | inconclusive [inhibitor, single point] |  |
| COc1ccc(OCc2nc3ccccc3[nH]2)cc1 | inconclusive [inhibitor, full curve] |  |
| Cc1sc2nc(Cc3ccccc3)[nH]c(=O)c2c1-c1ccccc1 | inconclusive [inhibitor, single point] |  |
| CCC(=O)Nc1nc2ccccc2n1Cc1ccccc1Cl | active: 2.82 µM |  |
| CCOc1cc(/C=C2/C(=O)NN(c3cccc(Cl)c3)C2=O)ccc1O | inconclusive [inhibitor, single point] |  |
| CCOc1ccc(-c2nnc(-c3ccco3)o2)cc1 | inconclusive [inhibitor, partial curve] |  |
| CC(/C=C/c1ccccc1)=N\NC(=O)c1cc(C)nc2ccccc12 | inconclusive [inhibitor, single point] |  |
| O=C(NNc1nc(-c2ccc(F)cc2)cs1)c1ccccc1 | inconclusive [inhibitor, single point] |  |
| Nc1nc(-c2cc(-c3ccccc3)no2)cs1 | inconclusive [activator, single point] |  |
| NS(=O)(=O)c1ccc(NCC2COc3ccccc3O2)c([N+](=O)[O-])c1 (configuration not stated) | inconclusive [activator, single point] |  |
| Cc1cc(S(=O)(=O)N2CCCOC2CNC(=O)C(=O)NCc2cccs2)ccc1F (configuration not stated) |  | inactive: -1.09% |
| COc1ccc(C(=O)C2CCCN(C(=O)CCC3=NNC(=O)CC3)C2)c(C)c1 (configuration not stated) |  | inactive: 4.85% |
| Cc1ccc2cc(C3C(C#N)=C(N)Oc4c3ccc3cccnc43)c(=O)[nH]c2c1 (configuration not stated) |  | inactive: -15.7% |
| Cc1ccc(C)c(-n2cc(CNC(C)Cn3cncn3)c(-c3ccccc3)n2)c1 (configuration not stated) |  | inactive: 0.446% |
| Cc1nn(-c2ccccc2)c(Cl)c1/C=N/Nc1nc2ccccc2[nH]1 | inconclusive [inhibitor, single point] |  |
| Cc1cc(C(=O)NC2CCCc3c2cnn3-c2ccc(C)c(C)c2)n(C)n1 (configuration not stated) | active: 0.0079 µM |  |
| CN(C)S(=O)(=O)c1ccc(NC(=O)COC(=O)c2n[nH]c3ccccc23)cc1 | active: 8.91 µM |  |
| CCN1C(=O)C(CC(=O)Nc2ccc(OC)cc2)N(Cc2ccco2)C1=S (configuration not stated) | inconclusive [inhibitor, single point] |  |
| O=C1NC(c2ccco2)Nc2sc3c(c21)CCN(Cc1ccccc1)C3 (configuration not stated) | inconclusive [inhibitor, full curve, poor fit] |  |
| COc1ccc(C(=O)CN2C(=O)c3ccccc3S2(=O)=O)cc1 | inconclusive [inhibitor, single point] |  |
| O=c1[nH]c(CCl)nc2cc(-c3ccc(Cl)cc3)sc12 | inconclusive [inhibitor, partial curve] |  |
| Cc1ccccc1N(C(=O)c1snc(C(N)=O)c1N)C(C(=O)NCC1CCCO1)c1ccc(F)cc1 (configuration not stated) |  | inactive: -9.86% |
| CCOc1ccc(NS(=O)(=O)c2ccc3c(c2)N(C(C)=O)CCS3)cc1 | inconclusive [inhibitor, partial curve] |  |
| COc1ccc(C2=NNC(c3cccs3)=Nc3ccc(OC)cc32)cc1 | inconclusive [activator, partial curve] |  |

| SMILES | Potency | activity, negative = inhibition |
| --- | --- | --- |
| CCOc1ccc(CN(C)C(=O)c2ccc(=O)[nH]c2)cc1 |  | inactive: 8.5% |
| Cc1ccn(C(C)CC(=O)N2CCc3ccccc32)n1 (configuration not stated) | inconclusive [inhibitor, single point] |  |
| CS(=O)(=O)c1ccc(C(=O)OCC(=O)NC23CC4CC(CC(C4)C2)C3)cc1[N+](=O)[O-] | inconclusive [inhibitor, single point] |  |
| COc1ccc(Br)cc1/C=C/C(=O)NC(=S)Nc1ccc(CN2CCOCC2)cc1 | active: 4.47 µM |  |
| Cc1ccc(C(C[N+](=O)[O-])c2c(-c3ccccc3O)[nH][nH]c2=O)cc1 (configuration not stated) | active: 11.2 µM |  |
| Cc1ccc(NC(=O)C(C)SCc2ccccc2)cc1 (configuration not stated) | inconclusive [activator, single point] |  |
| CC(C)Oc1ncnc2c1[nH]c1ccccc12 | inconclusive [inhibitor, single point] |  |
| Cn1c(Cn2c3ccccc3c3ccccc32)n[nH]c1=S | active: 12.6 µM |  |
| CCCCNC(=O)C1CCC(CNS(=O)(=O)c2ccc(C)cc2)CC1 (configuration not stated) |  | inactive: 6.67% |
| COc1ccc(CNC(=O)CN2C(=O)COc3ccc(S(=O)(=O)N4CCC(C)CC4)cc32)cc1 |  | inactive: -6.78% |
| CC1CCN(C(=O)CCc2nc3cc(S(=O)(=O)N(C)C)ccc3n2C)CC1 | inconclusive [inhibitor, partial curve] |  |
| O=C(CSC1=NCCS1)Nc1ccnc2ccccc12 | active: 3.98 µM |  |
| COc1ccc(CCNC(=O)C2CCCN(Cc3nc(-c4ccccc4C)oc3C)C2)cc1OC (configuration not stated) | inconclusive [inhibitor, single point] |  |
| CCOc1cccc(C(=O)Nc2cccc(-c3nnc(-c4ccc(C)cc4)o3)c2)c1 | inconclusive [inhibitor, partial curve] |  |
| CCSc1nnc(NC(=O)CSc2nccn2-c2cccc(C)c2C)s1 | inconclusive [inhibitor, single point] |  |
| CCc1nnc(NC(=O)c2sc3nc4c(cc3c2N)CCCCCC4)s1 | inconclusive [inhibitor, single point] |  |
| CCOC(=O)c1[nH]cnc1C(=O)Nc1ccc(C)cc1 | inconclusive [inhibitor, single point] |  |
| CCn1cc(CCC(=O)NCCN2CCOCC2)c2ccccc21 |  | inactive: -6.81% |
| O=c1[nH]nc(SCCS(=O)(=O)c2ccc(F)cc2)n1-c1ccccc1 |  | inactive: -10.6% |
| CC(C)C(=O)N1CCN(c2ccccc2NC(=O)COc2ccccc2)CC1 |  | inactive: -3.27% |
| CCOC(=O)c1c(-c2ccc(C)cc2)csc1NC(=S)NC(=O)c1ccccc1 | active: 2.82 µM |  |
| Cn1c(/C(C#N)=C(\O)c2ccc(Cl)s2)nc2ccccc21 | active: 4.47 µM |  |
| Cc1ccc(-c2nc(CN(C)C(C3CC3)C3CC3)c(C)o2)cc1 | inconclusive [activator, single point] |  |
